Source: US6518317B1, “Antiviral agents” (priority 1997, dated 2003)

System: recombinant retrovirus producer cells Ψ CRIP/DOL
Conditions: 24 hours

SMILES: O=C1C=CC(O)C1O (stereo not shown) [cyclopentenone, 4,5-dihydroxy-2-cyclopenten-1-one]
- titer of the virus solution (0.1 μM): 8.3×10^4 cfu/ml
- titer of the virus solution (0.5 μM): 6.4×10^4 cfu/ml
- titer of the virus solution (1.0 μM): 6.1×10^4 cfu/ml
- titer of the virus solution (2.0 μM): 3.8×10^4 cfu/ml
- titer of the virus solution (5.0 μM): 5.6×10^4 cfu/ml
- titer of the virus solution (10 μM): 5.1×10^4 cfu/ml
- titer of the virus solution (20 μM): 4.1×10^4 cfu/ml

Like-named read-outs stand apart in the source and are kept apart here.
